Experimental data: publication PMC4336329 (PLoS ONE, 2015)
The campaign covered roughly 310,000 compounds. About 14,000 (4.5%) showed an effect of 50% or more. Effects have a minus sign here. This is one part of the list.

target: human ether-à-go-go-related gene (hERG) potassium channel (human, UniProt Q12809); test: primary screen, population patch clamp on CHO cells stably expressing hERG
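Note: peak tail current of the secondary pulse compared with the same well before compound.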

human ether-à-go-go-related gene (hERG) potassium channel, sequence (Q12809 whole entry, looked up): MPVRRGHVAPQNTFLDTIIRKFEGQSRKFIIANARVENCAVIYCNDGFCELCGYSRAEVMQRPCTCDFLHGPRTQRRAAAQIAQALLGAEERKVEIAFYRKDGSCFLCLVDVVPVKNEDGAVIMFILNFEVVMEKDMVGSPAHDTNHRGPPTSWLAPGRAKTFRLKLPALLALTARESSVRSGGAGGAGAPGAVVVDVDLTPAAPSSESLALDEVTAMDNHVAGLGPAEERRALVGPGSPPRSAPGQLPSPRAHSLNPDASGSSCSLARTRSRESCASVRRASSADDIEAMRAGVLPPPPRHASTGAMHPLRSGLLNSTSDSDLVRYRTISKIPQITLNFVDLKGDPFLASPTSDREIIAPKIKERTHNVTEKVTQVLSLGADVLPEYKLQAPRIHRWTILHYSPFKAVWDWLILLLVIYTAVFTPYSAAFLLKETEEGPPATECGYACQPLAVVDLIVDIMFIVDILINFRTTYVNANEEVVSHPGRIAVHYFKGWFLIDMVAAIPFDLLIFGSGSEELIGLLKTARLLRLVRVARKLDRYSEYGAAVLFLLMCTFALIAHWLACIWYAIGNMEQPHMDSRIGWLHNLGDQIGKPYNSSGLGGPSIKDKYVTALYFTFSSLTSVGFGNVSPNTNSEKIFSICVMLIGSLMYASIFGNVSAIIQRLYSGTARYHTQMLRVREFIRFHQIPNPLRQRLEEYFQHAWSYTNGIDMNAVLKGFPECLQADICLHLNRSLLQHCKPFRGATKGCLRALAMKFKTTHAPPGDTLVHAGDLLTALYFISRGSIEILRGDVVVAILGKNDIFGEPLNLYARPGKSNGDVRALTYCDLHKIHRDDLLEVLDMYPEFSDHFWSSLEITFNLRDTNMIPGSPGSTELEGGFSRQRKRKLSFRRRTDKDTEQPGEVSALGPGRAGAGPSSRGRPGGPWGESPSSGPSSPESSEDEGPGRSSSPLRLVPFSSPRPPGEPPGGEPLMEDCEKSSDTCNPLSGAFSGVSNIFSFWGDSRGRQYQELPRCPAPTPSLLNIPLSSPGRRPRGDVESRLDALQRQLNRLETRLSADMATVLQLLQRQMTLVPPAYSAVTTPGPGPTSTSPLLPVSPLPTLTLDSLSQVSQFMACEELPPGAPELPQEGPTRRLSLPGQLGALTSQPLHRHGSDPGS

| Structure (SMILES) | hERG current change (%, negative = inhibition) at 10uM [%] |
| --- | --- |
| CSCCCNC(=S)N1CCN(S(=O)(=O)c2cccc(C(F)(F)F)c2)CC1 | 5.07 |
| O=C1C2C3C=CC(C3)C2C(=O)N1/N=C/c1cn(Cc2ccccc2)c2ccccc12 (stereo not shown) | 2.37 |
| Nc1nnc(SCC(=O)c2cccc([N+](=O)[O-])c2)s1 | -1.84 |
| Cc1ccc(CNC(=O)CCc2c(C)nc3ncnn3c2C)cc1 | -4.93 |
| Cc1ccc(S(=O)(=O)N2CCN(S(=O)(=O)N3CCC(C)CC3)CC2)cc1C | 12.9 |
| CCCOc1ccc(C(=O)NNC(=O)c2cccc(S(=O)(=O)N3CCN(C(C)=O)CC3)c2)cc1OC | -13.8 |
| CC(C)C(=O)Nc1ccc2c3c(cccc13)CC2 | -16.1 |
| CCCCC1N2CC3([N+](=O)[O-])CN1CC([N+](=O)[O-])(C2)C3(C)C (stereo not shown) | -2.92 |
| Cc1ccccc1NC(=O)Nc1nc2ccc(S(C)(=O)=O)cc2s1 | -2.53 |
| COc1cc(NC(=O)COC(=O)CC(NC(C)=O)c2ccccc2)cc(OC)c1 (stereo not shown) | 4.45 |
| Cc1ccccc1-n1ncc(C(C)NS(=O)(=O)c2ccccc2Cl)c1C (stereo not shown) | 12.8 |
| N#Cc1c(-c2ccco2)cc(C2CC2)nc1SCC(=O)c1ccccc1 | 17.4 |
| CCCCCCCNC(=O)C1(CC2CC(c3ccc(Cl)cc3)=NO2)CCN(C(=O)CCCCCBr)CC1 (stereo not shown) | -79 |
| Cc1nnc(NC(=O)CSc2nnc(C)n2Cc2ccccc2)s1 | 17.7 |
| Cc1c(C(=O)O)sc2[nH]c(=O)n(Cc3ccccc3)c(=O)c12 | 24.6 |
| CCCCn1c(N)c(N(CCOC)C(=O)c2cccc(N3C(=O)c4ccccc4C3=O)c2)c(=O)[nH]c1=O | 20.8 |
| CC(O)CNc1ccc(-c2n[nH]c(=O)c3ccccc23)cc1[N+](=O)[O-] (stereo not shown) | 8.45 |
| CCc1cccc(C)c1Nc1nc2ccccc2n2cnnc12 | -13.7 |
| COc1ccc(NC(=O)Cc2cccs2)c(OC)c1 | -0.294 |
| CN(C(=O)COC(=O)CSc1cc(Cl)ccc1Cl)c1c(N)n(Cc2ccccc2)c(=O)[nH]c1=O | -0.021 |
| COc1ccc2[nH]c3c(c2c1)CCNC3C1CC=C(C)CC1.Cl (stereo not shown) | -22.2 |
| CC(=O)c1sc(-c2ccccc2)cc1NS(=O)(=O)c1ccc(C)cc1 | 1.88 |

| Structure (SMILES) | hERG current change (%, negative = inhibition) at 10uM [%] |
| --- | --- |
| Cc1ccc(-n2nc(C(=O)NN)c(C)c(C#N)c2=O)cc1Cl | 14.5 |
| Cc1ccc(Oc2ncccc2NC(=O)CC(CC(=O)O)c2ccccc2)c2c1CCC2 (stereo not shown) | -3.27 |
| COc1ccc(N/C=C/C(=O)C(C)(C)C)cc1 | 1.29 |
| O=C(c1ccc2c(c1)OCO2)N1CCC2(CC1)Oc1ccc(F)cc1C(=O)C21CC(c2cccnc2)=NO1 (stereo not shown) | -17.9 |
| Cc1ccnc2nc(C(=O)OCC(=O)NC(=O)NCc3ccco3)nn12 | 17.1 |
| CCOc1ccc([C@@H]2CC=C(C(=O)O)[C@H](c3ccc(Cl)cc3)N2S(=O)(=O)c2ccc(C)cc2)cc1 | -4.99 |
| Cc1cnc(CN(C)C(=O)C2CCC(=O)N(CCc3ccccc3)C2)[nH]1 (stereo not shown) | 17.1 |
| Cc1nn(C)c(C)c1NS(=O)(=O)c1ccc(Cl)cc1 | 4.66 |
| Cc1cccc(-c2c3c(=O)n(C)c(=O)n(C)c3cn2C2CCCCC2)c1 | 14.8 |
| CC(=O)Nc1ccc(N(CC(=O)NC2CCCCC2)C(=O)Cn2nnc(-c3ccccc3)n2)cc1 | 6.79 |
| Cc1ccc(Nc2c(N)c(=O)oc3ccccc23)cc1 | -17.2 |
| O=C(O)c1ccccc1C(=O)NC1CCCCNC1=O (stereo not shown) | 9.01 |
| CC(CCc1ccccc1)NC(=O)C1CCN(c2nnc(-n3cccc3)s2)CC1 (stereo not shown) | -13.2 |
| CCOC(=O)C1=C(C)NC2=C(C(=O)CC(C)(C)C2)C1c1coc2ccccc2c1=O (stereo not shown) | 5.08 |
| O=C(NCC1CCCO1)C1CCCN1C(=O)Nc1ccc(Cl)c(Cl)c1 (stereo not shown) | 12 |
| CCOc1ccccc1NC(=O)Nc1ccccn1 | -7.36 |
| COc1cccc(CNC(=O)N2CCN(S(=O)(=O)c3ccc(C)cc3)CC2)c1 | 16.3 |
| C[C@@H]1CCC(=O)N(CC[C@H](Sc2ccc(Br)cc2)c2ccccc2)CC1 | 5.94 |
| NC(=O)C1(N2CCCCC2)CCN(C(=O)CSc2nc3ccccc3s2)CC1 | -33.7 |
| Cc1ccc(OCC(=O)N2CCN(S(=O)(=O)c3ccc(Cl)cc3)CC2)c([N+](=O)[O-])n1 | -48.8 |
| O=c1oc2ccccc2c(Nc2ccccc2O)c1[N+](=O)[O-] | 1.12 |
| S=C(NCCc1ccccc1)N/N=C/c1c(Cl)cccc1Cl | -4.01 |

| Structure (SMILES) | hERG current change (%, negative = inhibition) at 10uM [%] |
| --- | --- |
| C=CCn1c(C)nc2c(sc3nc4c(cc32)COC(C)(C)C4)c1=O | 7.28 |
| COc1cccc(-n2c(SCC(N)=O)nc3c([nH]c4ccccc43)c2=O)c1 | -0.054 |
| CC(=O)c1cccc(NC(=O)N(c2ccccc2)c2ccccc2)c1 | -6.48 |
| CCC(C)NC(=O)CN(c1cc(Cl)cc(Cl)c1)S(C)(=O)=O (stereo not shown) | 5.04 |
| O=[N+]([O-])c1ccc2[nH]c(O)c(N=NC3CS(=O)(=O)CC3O)c2c1 (stereo not shown) | 12.5 |
| CCN(CC)C(c1ccc(C)cc1)c1nnnn1C1CCCCC1.Cl (stereo not shown) | -4.52 |
| CCCn1cc(NC(=O)C2CC(c3cccc(Br)c3)=NO2)cn1 (stereo not shown) | -38.2 |
| COc1ccc(NC(=O)Cn2c3ccc(OC)cc3c3nc4n(c(=O)c32)CCS4)cc1 | 6.12 |
| COC(=O)C(NNc1ccccc1)(NC(=O)c1ccc(F)cc1)C(F)(F)F (stereo not shown) | -2.1 |
| CC(Oc1ccccc1Cl)C(=O)Nc1ccc(S(=O)(=O)N2CCCC2)cc1 (stereo not shown) | -17.1 |
| CC(C)c1ccc(NC(=O)Cn2ncn3c(cc4ccccc43)c2=O)cc1 | 5.06 |
| Cc1oc(-c2ccc(F)cc2)nc1CN(Cc1ccccn1)CC1CCCO1 (stereo not shown) | -19.8 |
| COC(=O)CCC(=O)OC1(C)C(=O)C=C2C=C(C3CC3)N(c3ccccc3)C=C2C1=O (stereo not shown) | -6.94 |
| Cc1cc(C)c(S(=O)(=O)c2ccc(C(C)(C)C)cc2)c(Cl)n1 | 16.7 |
| C=CCn1c(N)cc(=O)nc1SCC(=O)NC(C)c1ccccc1 (stereo not shown) | 13.8 |
| CCOc1ccc(NC(=O)C2CCCN(S(=O)(=O)c3ccc(-n4cnnn4)cc3)C2)cc1 (stereo not shown) | 10.8 |
| Cc1noc(C)c1C(=O)Nc1nc(-c2ccc(F)c(F)c2)cs1 | 0.641 |
| CNC(=O)C(=O)NCC1CCCN1S(=O)(=O)c1cccs1 (stereo not shown) | 12.4 |
| Cc1c(C#N)c2ccccc2n1CC(=O)NCc1ccccc1 | -3.03 |
| O=C(O)CSc1nnc(-c2ccncc2)n1-c1ccc(Cl)cc1 | -13 |
| O=C(CSc1ccc(F)cc1)Nc1ccccc1Br | -6 |
| O=c1[nH]c(=S)n(-c2ccccc2F)c(O)c1C=NCc1ccco1 | -0.509 |

| Structure (SMILES) | hERG current change (%, negative = inhibition) at 10uM [%] |
| --- | --- |
| Cc1cccn2c(=O)c(/C=N/O)c(N3CCOCC3)nc12 | 12.1 |
| O=C(C1CCCN(Cc2ccc(Br)cc2)C1)N1CCCCC1.O=C(O)C(=O)O (stereo not shown) | -37.2 |
| O=C(O)CCCCCNc1ccc2nsnc2c1[N+](=O)[O-] | 6.8 |
| COc1ccc(CCNC(=O)c2ccc(CS(=O)Cc3ccc(C)cc3)o2)cc1OC (stereo not shown) | 8.06 |
| Cc1nc2sccn2c(=O)c1S(=O)(=O)Nc1cccc(Cl)c1C | -22.8 |
| CC(=O)c1ccc(N(CC(=O)NC2CCS(=O)(=O)C2)S(=O)(=O)c2ccc(Cl)cc2)cc1 (stereo not shown) | 5.96 |
| COC/C=C/C1=CC2=CC(=O)C(C)(O)C(=O)C2=CO1 (stereo not shown) | 19.3 |
| COc1cccc(-n2c(CCn3nc(C)c([N+](=O)[O-])c3C)n[nH]c2=S)c1 | 8.2 |
| CC1(C)CC(=O)C2=C(C1)N(c1ccc(F)cc1)C(=O)NC2(C(F)(F)F)C(F)(F)F | -13 |
| COc1ccccc1CC(=O)Nc1ccc(S(=O)(=O)N2CCCCC2)cc1 | 5.54 |
| COc1ccccc1N(CC(O)CN1CCC(C)CC1)S(=O)(=O)c1ccccc1 (stereo not shown) | -19.2 |
| O=c1c2oc3nc4c(cc3c2ncn1CCCc1ccccc1)CCCC4 | -21.5 |
| CC(=O)Nc1ccc(CN2CCN(Cc3ccc(C)cc3)C(CCO)C2)cc1 (stereo not shown) | -34.5 |
| COc1ccc(NC(=O)N(Cc2cc3cc(OC)c(OC)cc3[nH]c2=O)CC2CCCO2)cc1 (stereo not shown) | -0.0111 |
| Cc1nnsc1C(=O)NC1CCCCC1 | 6.7 |
| C=CCNC(=O)/C(C#N)=C/c1c(N2CCCCCC2)nc2ccccn2c1=O | -59.6 |
| CS(=O)(=O)c1ccc(CNC(=O)[C@]2(C(F)(F)F)C[C@H](CCc3ccccc3)CCCO2)cc1 | 10.7 |
| COc1ccc(C(=O)/C=C/c2cccnc2)c(OC)c1 | 10.4 |
| COc1ccc(NC(=O)c2cccc(S(=O)(=O)N3CCOCC3)c2)cn1 | 1.3 |
